# Laboratory results from PMC7819943, “Rice protein-binding microarrays: a tool to detect cis-acting elements near promoter regions in rice”.
# The other results are listed elsewhere or left out.
# Biological target: T1, OsWOX13 (Oryza sativa, UniProt Q5QMM3 1-267)
# T1 sequence: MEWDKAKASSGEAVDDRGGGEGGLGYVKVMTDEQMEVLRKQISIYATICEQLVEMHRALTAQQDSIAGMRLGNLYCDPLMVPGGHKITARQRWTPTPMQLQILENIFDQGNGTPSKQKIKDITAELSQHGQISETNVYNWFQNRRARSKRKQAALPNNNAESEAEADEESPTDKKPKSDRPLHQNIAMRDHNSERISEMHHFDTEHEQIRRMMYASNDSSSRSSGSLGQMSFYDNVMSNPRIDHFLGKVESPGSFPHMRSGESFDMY
# Test: protein-binding microarray (RPBM); PBS, 2% BSA, 51.3 ng/ul salmon testes DNA, 50 uM zinc acetate, 200 nM TF, 25 C, 1 h; high values mean tight binding
# Settings: protein: recombinant; tags: N-terminal polyhistidine and DsRed monomer fusion (pET32a); label: CyDye5-dUTP incorporated in the synthesized complementary strand; 3' TTTTT single-stranded linker to array surface; dsDNA, one strand shown
# Procedure, shortened: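 The binding signal is fluorescence intensity per feature, in arbitrary units, read on an Axon 4000B scanner. Polyhistidine- and DsRed-tagged transcription factors (N-terminal fusions) from E. coli BL21-CodonPlus were purified on Ni–NTA and applied at 200 nM for 1 h at 25 °C to a double-stranded, BSA-blocked custom Agilent array in buffer with 50 µM zinc acetate.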
row,Sequence,binding signal
1,CACTGATCAGTGAAATCATTATTCCACACGCTCATGCTACCGGAGTCACCTAGTGCAG,4400 fluorescence intensity (a.u.)
2,TAATAATAAATTTACCGATCTGCCCTTGCTTGCGGCTTTTCGGAGTCACCTAGTGCAG,4570 fluorescence intensity (a.u.)
3,TTAAATTAGCTTAATTAGATAGCTGCGACTGACCTGGACACGGAGTCACCTAGTGCAG,51700 fluorescence intensity (a.u.)
4,GTAATTAACGTGTACTAATGTAATTTGCCACACATCCTGGCGGAGTCACCTAGTGCAG,24200 fluorescence intensity (a.u.)
5,TCCCTAAATTTTGCTTATTTTCTTGTATATACTGTTTACACGGAGTCACCTAGTGCAG,5720 fluorescence intensity (a.u.)
6,GGCGATTGAATTAATTTTAATAATCAATGATACTAGTAGTCGGAGTCACCTAGTGCAG,45200 fluorescence intensity (a.u.)
7,TTAATTTGCTGACATATCTCTTCCGTTCTTGAATATTGATCGGAGTCACCTAGTGCAG,3770 fluorescence intensity (a.u.)
8,ACCTGACAGATATCACCCGATACCTATGTGGATACTAGGCCGGAGTCACCTAGTGCAG,15900 fluorescence intensity (a.u.)
9,TGCGTGATTGTTGGGATTATTTTATTAATTGATCCAATGGCGGAGTCACCTAGTGCAG,57200 fluorescence intensity (a.u.)
10,TTTGATGACCTTTTGCTTGATCTCGAAATTAAAATTCAAGCGGAGTCACCTAGTGCAG,3780 fluorescence intensity (a.u.)
11,TTCAAGGCATTATTACTTAATTTGTCCACAAAATTGAAGACGGAGTCACCTAGTGCAG,3410 fluorescence intensity (a.u.)
12,AAGTCGTTACTCGTTAATTGGCAGCAGAAGCGAAGGATATCGGAGTCACCTAGTGCAG,15400 fluorescence intensity (a.u.)
13,TGTGGCAATTAAGAATTTGTCACTCGCTGTTTATAACATGCGGAGTCACCTAGTGCAG,3510 fluorescence intensity (a.u.)
14,GTTGACGTGGATATATATCTGATTGATCGTACAGCCAACTCGGAGTCACCTAGTGCAG,23500 fluorescence intensity (a.u.)
15,CAGCTAGGATAATTGAGAGTTGACACGTAAGGCAGCTTCGCGGAGTCACCTAGTGCAG,21500 fluorescence intensity (a.u.)
16,CGAGGAGCGGGGTGGGGTCGGAGGCGGGGAGGGAGGACGCCGGAGTCACCTAGTGCAG,3730 fluorescence intensity (a.u.)
17,AAAATATATTGATAATTGCTTTGTAATTATCGCAGCAAAGCGGAGTCACCTAGTGCAG,35600 fluorescence intensity (a.u.)
18,GGATGGAGTGAGTATGATTTGCCCATTAATCACAGACTCGCGGAGTCACCTAGTGCAG,5040 fluorescence intensity (a.u.)
19,AAAGATTGAAAGAATAGTACTAGTTGAGGAGTTTGCTGATCGGAGTCACCTAGTGCAG,22000 fluorescence intensity (a.u.)
20,TTAATTATTAAATTCTTTTCACTGTCTACTACTTGTTCCGCGGAGTCACCTAGTGCAG,15300 fluorescence intensity (a.u.)
21,AAAATTCAAATTTTATATAGTTCAATCAAACTCGGATAGACGGAGTCACCTAGTGCAG,4280 fluorescence intensity (a.u.)

row,Sequence,binding signal
1,TCAATATCTGATAATTATGTAGTGCTTATGGTTGATTAGCCGGAGTCACCTAGTGCAG,4380 fluorescence intensity (a.u.)
2,ATATATTTCATCAATTTGTTTACTTTACATATGGGAGAGGCGGAGTCACCTAGTGCAG,3780 fluorescence intensity (a.u.)
3,AGAAAACCATTATATTATTAATTGAGTTTTAATTTATTTCCGGAGTCACCTAGTGCAG,5180 fluorescence intensity (a.u.)
4,GATAAATTTAAGCCTTGTTTGTATTTGTCTGCATGAAGACCGGAGTCACCTAGTGCAG,7120 fluorescence intensity (a.u.)
5,TTGGCCTTCAATCATTGACACTTGGACAGAACAAATCAATCGGAGTCACCTAGTGCAG,26000 fluorescence intensity (a.u.)
6,ACTTAATTTGGCTCTTTAGGCCTTTACCAACGTGTCACTCCGGAGTCACCTAGTGCAG,8310 fluorescence intensity (a.u.)
7,GTTGACGATTAAAACAAACCAGTGTTTGACTTTCTTACTGCGGAGTCACCTAGTGCAG,3160 fluorescence intensity (a.u.)
8,ATTGGCTATTAGATTGACTATAGATGAATTGGAGCTAGTACGGAGTCACCTAGTGCAG,13600 fluorescence intensity (a.u.)
9,CGAGGTTCCCAATCACGCTACCTCCACTCACAGAGCCAACCGGAGTCACCTAGTGCAG,3410 fluorescence intensity (a.u.)
10,CACAATCACGAATTGAAGAAAGTCCTTCATTTCACATCAACGGAGTCACCTAGTGCAG,3660 fluorescence intensity (a.u.)
11,GATCTGATTAAGCATCTCATGCTTTCTCGCTTTGATTCTCCGGAGTCACCTAGTGCAG,5880 fluorescence intensity (a.u.)
12,ATTTACTGATAGAGCATGAATTTCCATTCTACTCTTTATGCGGAGTCACCTAGTGCAG,6860 fluorescence intensity (a.u.)
13,ACAGCGGTTAATTAACAGGTTAAGCGCAGGGTATCGACGCCGGAGTCACCTAGTGCAG,14900 fluorescence intensity (a.u.)
14,CAACTTCCCAATTAACACCGGTAATGGGGACTTGACACTTCGGAGTCACCTAGTGCAG,13400 fluorescence intensity (a.u.)
15,GCGAGCAAGATTGGAATCAGCGTGGTGGTGGTAGGGGAGGCGGAGTCACCTAGTGCAG,8240 fluorescence intensity (a.u.)
16,AATAAGAATAATTATGAATAGAAACAGACCCTGACACTGCCGGAGTCACCTAGTGCAG,6170 fluorescence intensity (a.u.)
17,CTGCTCAATCAATCATGGCGCATCATCTCGTCGTCGTGCTCGGAGTCACCTAGTGCAG,31200 fluorescence intensity (a.u.)
18,GGGAGAGGGGTGTGGGGCGGAGAGGGAGAGGGAGATGGGACGGAGTCACCTAGTGCAG,5890 fluorescence intensity (a.u.)
19,GGTAATTAACCGACGGTAAAGGAAACCGTAAGTCGTCTCTCGGAGTCACCTAGTGCAG,22400 fluorescence intensity (a.u.)
20,ATCCATCATCTAACTGATTGACGGCTTGCTCCTCCTTTTCCGGAGTCACCTAGTGCAG,36300 fluorescence intensity (a.u.)
21,ACGCAAAATTATCTTGTCGTCTCAAGCTCAGATGTTTATGCGGAGTCACCTAGTGCAG,3420 fluorescence intensity (a.u.)

row,Sequence,binding signal
1,TAACCTGATTGGTGAAGGTCCCTTCAAATCCTGCATGATTCGGAGTCACCTAGTGCAG,30700 fluorescence intensity (a.u.)
2,AATATGAGACAATTAATTGGGTTCATAGTTGTGCTTAATTCGGAGTCACCTAGTGCAG,10400 fluorescence intensity (a.u.)
3,AAATAACAAAATTACAAGTTTAACATAAATATGTAATCACCGGAGTCACCTAGTGCAG,10300 fluorescence intensity (a.u.)
4,AAGCCTATTTATGATATAATCACACATGAATACACAATCACGGAGTCACCTAGTGCAG,4600 fluorescence intensity (a.u.)
5,CCTACACAGTACAGGCCCACTAATTGGCCCAACTGACCTACGGAGTCACCTAGTGCAG,3220 fluorescence intensity (a.u.)
6,ATGACAAGAAAGAAAATCAATTAGCGTCTCGCGTATTACTCGGAGTCACCTAGTGCAG,4120 fluorescence intensity (a.u.)
7,GACTTGATGGGCCTTGATGAGCCCAGCCCATTATACCGGCCGGAGTCACCTAGTGCAG,13400 fluorescence intensity (a.u.)
8,AACCAAATCATTGGGAAGGCCAAACCTAGACGCAGACTCGCGGAGTCACCTAGTGCAG,4370 fluorescence intensity (a.u.)
9,TCTTCTACGATAATTAATTACTCCGGTGCACGTAGGTCAACGGAGTCACCTAGTGCAG,8510 fluorescence intensity (a.u.)
10,CTCAACATGAACTTCTTGATTACCTGTGACCCAGCCACGGCGGAGTCACCTAGTGCAG,3150 fluorescence intensity (a.u.)
11,CCTTGGCCTTAATTATTGACGTAGTACGTACACTTGATGCCGGAGTCACCTAGTGCAG,8540 fluorescence intensity (a.u.)
12,AAGAATAATTAGCCTAAATACAAGTGCATGTGTCAAATGTCGGAGTCACCTAGTGCAG,6230 fluorescence intensity (a.u.)
13,AAAAGTAATTTAGACATATCATAAAAGTAATTTATGATTTCGGAGTCACCTAGTGCAG,9340 fluorescence intensity (a.u.)
14,GTGATACAAATCAAATCAGATTTGCCCAATAATTGAGCGACGGAGTCACCTAGTGCAG,25900 fluorescence intensity (a.u.)
15,TTCTAATTAATATGTCATTAGCAAATGTTTACTGTACCACCGGAGTCACCTAGTGCAG,38300 fluorescence intensity (a.u.)
16,ACTGGTTGAATAATTTGCAGAAATTATCTTCTGAAGTGCGCGGAGTCACCTAGTGCAG,11600 fluorescence intensity (a.u.)
17,TCATCATTGATGGATTTGGAGCAGCAGGTCAAAACTGTGACGGAGTCACCTAGTGCAG,5160 fluorescence intensity (a.u.)
18,ACAAGATAACATAAATTATAGTGAGCCTGTTATTGTTTAACGGAGTCACCTAGTGCAG,8724 ± 23.3 fluorescence intensity (a.u.)
19,GTAATTGATAGTACTGTGAAAATACTACTCCTGATGAGTTCGGAGTCACCTAGTGCAG,51800 fluorescence intensity (a.u.)
20,TCTAATTAACACCTTTCACTTATGCATTATGCAAATACAACGGAGTCACCTAGTGCAG,18200 fluorescence intensity (a.u.)
21,AGTCATCTGTAATTTGCAGACAGAAATGGAGCTTTCCATCCGGAGTCACCTAGTGCAG,5500 fluorescence intensity (a.u.)

row,Sequence,binding signal
1,TTCAATTAATCTTGCTATAACTGCCGTGTCGGGAGACAACCGGAGTCACCTAGTGCAG,9740 fluorescence intensity (a.u.)
2,GGCAAAACATGCAAATTGACCAATGGTACGTGACAGACAGCGGAGTCACCTAGTGCAG,5440 fluorescence intensity (a.u.)
3,TTGTATAAATAAGTTATTAGATTGACTACAGATGAATTGACGGAGTCACCTAGTGCAG,20500 fluorescence intensity (a.u.)
4,TCCAAAATTTTAGTTTATTCAATTTAGTTGGAATTAAATTCGGAGTCACCTAGTGCAG,4700 fluorescence intensity (a.u.)
5,ATATATATATATATATATATATATATATATATATAATGGGCGGAGTCACCTAGTGCAG,15800 fluorescence intensity (a.u.)
6,AATATACAATGTGATTAGTATTTTGGATCAATGACGAGGTCGGAGTCACCTAGTGCAG,12700 fluorescence intensity (a.u.)
7,TGTATATTTGTGGATTGATATATCATATATTAATCTATTACGGAGTCACCTAGTGCAG,3170 fluorescence intensity (a.u.)
8,GCCGTGGATGAAACTTTGATTGTCGTATAGGCTGAGCTCTCGGAGTCACCTAGTGCAG,4720 fluorescence intensity (a.u.)
9,AAAGTGATGATTTACTAAATTTTCTAAATGAACGGAGCTACGGAGTCACCTAGTGCAG,21400 fluorescence intensity (a.u.)
10,CAAACTAATAATTTGGCTTTTGGCTTCTGCTGAAGCAAGTCGGAGTCACCTAGTGCAG,4830 fluorescence intensity (a.u.)
11,GTGGGAAATTGGAAGAGAAATTAACTTATGTGTAGTGTTTCGGAGTCACCTAGTGCAG,19800 fluorescence intensity (a.u.)
12,TTATGATTTGACAATGTGGTGCTACAGTAAACATTTGCTACGGAGTCACCTAGTGCAG,42700 fluorescence intensity (a.u.)
13,ACCCTTAGTTGATTTACAAATTCCACGTGCACCGAAGTGGCGGAGTCACCTAGTGCAG,17000 fluorescence intensity (a.u.)
14,GGACTGCACTATGAATTAATTGGATCACACCTGCTGCTAGCGGAGTCACCTAGTGCAG,5650 fluorescence intensity (a.u.)
15,TAAGTAATTAATTAATCAATCAATTAATCAATTATTATCCCGGAGTCACCTAGTGCAG,52600 fluorescence intensity (a.u.)
16,ATTAGTGTATCAATAATTAAGTTTTAATTATTTTAAACTTCGGAGTCACCTAGTGCAG,17400 fluorescence intensity (a.u.)
17,AGAATTGATGTCCAGACTGGAATAAAGATGATCTTGAAGCCGGAGTCACCTAGTGCAG,10800 fluorescence intensity (a.u.)
18,GGTGTCTCTGATTAAGACTAATTGGAGAGGCCTCTCCAATCGGAGTCACCTAGTGCAG,6200 fluorescence intensity (a.u.)
19,TTTATTAATTTTATAAATTTTAAAATGAGATGGACGGTAACGGAGTCACCTAGTGCAG,18600 fluorescence intensity (a.u.)
20,AGTAATTAACAAAATACTTTTGTTCATATTTATTAATATCCGGAGTCACCTAGTGCAG,19500 fluorescence intensity (a.u.)
21,CTCTCTGTCAAGTAGATTGAAGTGGATTTAGAGAAAATTACGGAGTCACCTAGTGCAG,3840 fluorescence intensity (a.u.)
